Assay results as given in PubChem BioAssay AID588453 (National Center for Advancing Translational Sciences (NCATS), 2011).
Hit rate of the full screen: of about 390,000 compounds, about 4,000 (1%) were called active. Inconclusive means that the source gave no clear call. Such entries were picked first, then a sample of the others. Calls come from the whole dose curve; as a rule, active = well fitted inhibition curve with a large enough effect; inconclusive = small, poorly fitted or top-dose-only effect; inactive = no such curve, though single readings can be large or run the other way. Potencies of inconclusive entries are doubtful fits and often do not repeat.

target: Thioredoxin reductase 1, cytoplasmic (Rattus norvegicus) (UniProt O89049); experiment: qHTS Assay for Inhibitors of Mammalian Selenoprotein Thioredoxin Reductase 1 (TrxR1): qHTS; settings: recombinant rTrxR1, NADPH fluorescence consumption, selenite substrate; series mostly up to 114 µM; activity change, negative = inhibition: at the top concentration; note: nearly all actives have a fitted effect of over 65% in size
Chain of UniProt O89049 (O89049 whole entry, looked up): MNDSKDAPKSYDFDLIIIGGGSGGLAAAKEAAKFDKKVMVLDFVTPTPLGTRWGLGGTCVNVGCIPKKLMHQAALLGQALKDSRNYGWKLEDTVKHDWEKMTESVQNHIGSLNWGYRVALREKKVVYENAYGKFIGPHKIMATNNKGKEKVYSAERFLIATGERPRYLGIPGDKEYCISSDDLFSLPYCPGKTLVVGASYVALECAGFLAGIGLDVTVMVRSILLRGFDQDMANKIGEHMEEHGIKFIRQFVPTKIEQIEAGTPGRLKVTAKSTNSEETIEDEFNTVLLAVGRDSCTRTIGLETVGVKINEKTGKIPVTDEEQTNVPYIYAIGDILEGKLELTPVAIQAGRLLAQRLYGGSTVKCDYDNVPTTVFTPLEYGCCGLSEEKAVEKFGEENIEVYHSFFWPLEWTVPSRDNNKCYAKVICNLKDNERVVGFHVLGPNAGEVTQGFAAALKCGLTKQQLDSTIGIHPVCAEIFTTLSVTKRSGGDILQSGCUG
How it was run: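 Rat TrxR1 (90 nM in the dispensed reagent) was pre-reduced with 400 uM NADPH for 5 min at room temperature, then incubated with compound for 15 min. After 400 uM selenite was added, NADPH fluorescence (Ex 340/Em 450 nm) was followed for 8 min.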
% is set by controls: 0 for no effect and ±100 for the full control effect; potency is the fitted concentration of half-maximal effect; tags give direction and shape of the fitted curve.

SMILES | Potency | activity change, negative = inhibition
Cc1ccc(CNc2ccc(O)cc2)cc1 | inconclusive: 70.8 µM [inhibitor, single point] | –
C#CCOCCOCCOCCNc1nc(N2CCN(C(=O)CCCCCCCCCCNC(=O)Cn3cc(CCCCCN)nn3)CC2)nc(N2CCN(C(=O)CCCCCCCCCCNC(=O)[C@H](CO)n3cc(CCCCCN)nn3)CC2)n1 | inconclusive: 35.5 µM [inhibitor, partial curve] | –
CC(=O)Oc1cc2c(C(=O)NCCCN3CCOCC3)c(C)oc2c2ccccc12 | inconclusive: 31.6 µM [inhibitor, partial curve, poor fit] | –
O=c1[nH]nc(CNc2ccc(O)cc2)c2ccccc12 | inconclusive: 25.1 µM [inhibitor, single point] | –
CC(=C\C(=O)O)/C(=C/c1ccc(C)o1)C(=O)O | active: 70.8 µM | –
Cc1ccc(CNC(=O)CCNC(=O)N2CCn3c2nc2ccccc23)cc1 | inconclusive: 79.4 µM [inhibitor, single point] | –
Oc1ccccc1C1CC(c2cccs2)=NC(c2ccc(Cl)cc2)N1 (stereo unspecified) | inconclusive: 28.2 µM [inhibitor, full curve] | –
S=C(NCc1ccco1)Nc1cccc(Cl)c1Cl | – | inactive: -3.55%
COc1ccccc1Nc1ncc(C(=O)Nc2ccc(OC)c(OC)c2)c2ccccc12 | inconclusive: 20 µM [inhibitor, single point] | –
NC(=O)C1CCN(C(c2ccccc2Cl)c2nnnn2Cc2ccc3c(c2)OCO3)CC1 (stereo unspecified) | – | inactive: 5.99% [at 0.457 µM]
COc1ccccc1CNC(=O)c1cnc2sc(N3CCOCC3)nn2c1=O | – | inactive: 2.33% [at 57.1 µM]
CCOC(=O)Cn1c(=O)oc2cc(S(=O)(=O)NC(C)(C)CC)ccc21 | inconclusive: 79.4 µM [inhibitor, partial curve, poor fit] | –
O=C(NCCCNC(=O)c1ccc(-c2cccc(Cl)c2)o1)c1cnccn1 | inconclusive: 17.8 µM [inhibitor, partial curve] | –
CCCOc1ccc(Cc2nn3c(=O)/c(=C/c4ccco4)sc3nc2=O)cc1 | inconclusive: 63.1 µM [inhibitor, partial curve, poor fit] | –
O=C(CC1C(=O)NCCN1Cc1ccc(F)cc1Cl)NCc1ccon1 (stereo unspecified) | inconclusive: 50.1 µM [inhibitor, partial curve] | –
Cc1c(-n2cc(C(=O)c3cc(Br)ccc3O)cc(C#N)c2=O)c(=O)n(-c2ccccc2)n1C | inconclusive: 50.1 µM [inhibitor, partial curve] | –
COc1ccc(CNC(=O)CSc2ccsc2[N+](=O)[O-])cc1 | inconclusive: 25.1 µM [inhibitor, full curve, poor fit] | –
CCn1c(C(=O)N2CCCC(C(=O)NCCCc3ccccc3)C2)cc2sccc21 (stereo unspecified) | – | inactive: 9.7%
CC(=O)c1cccc(NC(=S)NC(=O)c2ccc(C)cc2)c1 | inconclusive: 25.1 µM [inhibitor, partial curve] | –
Cc1ccc(NC2CCCN(C(=O)CSc3ccccn3)C2)cc1C (stereo unspecified) | inconclusive: 70.8 µM [inhibitor, partial curve] | –
CC1=CCC2COC(c3ccc[n+](Cc4ccccc4)c3)C1C2 (stereo unspecified) | inconclusive: 79.4 µM [inhibitor, single point] | –
CCOC(=O)N=Nc1c2ccccc2c2nc3no[nH]c3nc12 | – | inactive: 14.5% [at 57.1 µM]

SMILES | Potency | activity change, negative = inhibition
CC1(C)C2CCC1(CS(=O)(=O)NCc1ccc(C(F)(F)F)cc1)C(=O)C2 (stereo unspecified) | inconclusive: 89.1 µM [inhibitor, partial curve, poor fit] | –
Cc1[nH]c(=S)c(C#N)c(C)c1CCC#N | inconclusive: 8.91 µM [inhibitor, partial curve] | –
COc1ccccc1C1CN(c2ccccc2)N=C1c1cccs1 (stereo unspecified) | inconclusive: 11.2 µM [inhibitor, full curve, poor fit] | –
Cc1cccc(CNC(=O)c2sc3ncnc(N(C)C4CCCCC4)c3c2C)c1 | – | inactive: 9.93% [at 57.1 µM]
Cc1nc(C#N)c(N/N=C/c2c(F)cccc2Cl)o1 | inconclusive: 89.1 µM [inhibitor, single point] | –
CCN(CC)c1ccc(/C=C(/C#N)c2nc3ccccc3[nH]2)c(OC(C)C)c1 | – | inactive: -8.26%
CCN1C(=S)SC(=O)C1=C1C=C(C)N(CCO)C(C)=C1 | inconclusive: 20 µM [inhibitor, full curve] | –
CCCc1cc(=O)oc2c(CN3CCOCC3)c(O)ccc12 | inconclusive: 100 µM [inhibitor, single point] | –
N#Cc1c(SCc2c(Cl)cccc2Cl)nc(N)[nH]c1=S | inconclusive: 56.2 µM [inhibitor, single point] | –
O=C(NC(=S)NCC1COc2ccccc2O1)c1ccccc1 (stereo unspecified) | inconclusive: 39.8 µM [inhibitor, single point] | –
CCN1/C(=C/C=C2/SC(=Nc3cccc4ncccc34)N(C)C2=O)Sc2ccccc21 | – | inactive: 10.7%
CCCCCC(=O)NNC1=NCC(Cc2ccccc2)S1 (stereo unspecified) | – | inactive: 29.5% [at 57.1 µM]
O=C(CSc1nnc(-c2ccncc2)n1-c1ccc(F)cc1)NC(=O)NCc1ccco1 | inconclusive: 39.8 µM [inhibitor, single point] | –
O=C(NC(=S)Nc1cccc2ncccc12)c1cccs1 | inconclusive: 31.6 µM [inhibitor, full curve] | –
Cc1ccc(NCCC(=O)c2cccs2)cc1 | inconclusive: 15.8 µM [inhibitor, partial curve, poor fit] | –
Cc1ccc(NC(=S)Nc2ccccn2)cc1C | inconclusive: 56.2 µM [inhibitor, partial curve] | –
COc1ccc(NC(=O)c2cc(C)nc3c2c(C)nn3-c2cccc(Cl)c2C)c(OC)c1 | – | inactive: 8.76%
O=c1[nH]c(/C=C/c2ccc(Cl)cc2Cl)c([N+](=O)[O-])c(=O)[nH]1 | inconclusive: 70.8 µM [inhibitor, partial curve, poor fit] | –
O=C(CCS(=O)(=O)c1ccccc1)Nc1nncs1 | inconclusive: 50.1 µM [inhibitor, partial curve] | –
COc1ccc(C(=O)NCC(c2ccco2)N(C)C)cc1S(=O)(=O)NCc1ccc(Cl)cc1 (stereo unspecified) | inconclusive: 79.4 µM [inhibitor, single point] | –
COc1ccccc1NC(=O)c1sc2ncn(Cc3cccc4ccccc34)c(=O)c2c1C | inconclusive: 89.1 µM [inhibitor, single point] | –
COC(=O)/C=C/C(=O)Nc1cccc(C(F)(F)F)c1 | inconclusive: 79.4 µM [inhibitor, single point] | –

SMILES | Potency | activity change, negative = inhibition
O=C(O)/C=C\C(=O)Nc1ccccc1N1CCN(c2ccccc2)CC1 | inconclusive: 89.1 µM [inhibitor, single point] | –
C=C(C)COc1cc2oc(=O)c(CC(=O)N3C[C@H]4C[C@@H](C3)c3cccc(=O)n3C4)c(C)c2cc1Cl | inconclusive: 79.4 µM [inhibitor, single point] | –
O=C(c1ccccc1)c1cc2ccccc2o1 | – | inactive: 9.23% [at 57.1 µM]
O=C(OCc1nc2scc(-c3ccccc3)c2c(=O)[nH]1)c1cc(Cl)ccc1[N+](=O)[O-] | – | inactive: 13.6%
O=C(O)CCCn1cc(NC(=O)COc2cc(F)ccc2[N+](=O)[O-])cn1 | – | inactive: 15.1%
CC(=O)Nc1ccc(NC(=O)C/C(C)=N/NC(=O)C(=O)Nc2ccc(C)c(Cl)c2)cc1 | inconclusive: 79.4 µM [inhibitor, partial curve, poor fit] | –
O=C(NC(Cc1ccccc1)C(=O)O)/C(=C\c1ccco1)NC(=O)c1ccccc1Br (stereo unspecified) | inconclusive: 35.5 µM [inhibitor, partial curve] | –
Cc1nn(Cc2ccc(Cl)c(Cl)c2)c(C)c1NC(=O)c1cc(-c2ccco2)on1 | inconclusive: 14.1 µM [inhibitor, full curve] | –
O=C(C1CCN(S(=O)(=O)c2cccc3nsnc23)CC1)N1CC=C(c2ccccc2)CC1 | inconclusive: 20 µM [inhibitor, single point] | –
Cc1c(NC(=S)NC(=O)C(C)(C)C)cccc1[N+](=O)[O-] | inconclusive: 31.6 µM [inhibitor, single point] | –
S=c1[nH]nc(-c2ccncc2)n1/N=C/C=C/c1ccco1 | inconclusive: 35.5 µM [inhibitor, full curve, poor fit] | –
COc1cccc(CNc2ccc(N3CCC(C)CC3)cc2)c1OC | – | inactive: -27.6% [at 57.1 µM]
c1coc(CNc2ncnc3[nH]ncc23)c1 | inconclusive: 70.8 µM [inhibitor, partial curve] | –
C/C(=N\Nc1nnc(C)c(=O)[nH]1)C(=O)O | – | inactive: 17.9%
COc1cccc(C2c3c(-c4ccccc4O)n[nH]c3C(=O)N2Cc2cccnc2)c1 (stereo unspecified) | – | inactive: 13.4%
O=C(CCc1nnc2ccc(NCc3ccco3)nn12)N1CCN(c2ccc(F)cc2)CC1 | inconclusive: 56.2 µM [inhibitor, partial curve] | –
Cc1ccc(N2C(=O)/C(=C\c3ccco3)SC2=S)cc1 | inconclusive: 22.4 µM [inhibitor, full curve] | –
CCOc1cc(NC(=S)NCc2ccco2)c(OCC)cc1NC(C)=O | inconclusive: 15.8 µM [inhibitor, partial curve, poor fit] | –
NC1=C(Cl)C(=O)c2ccccc2C1=O | active: 12.6 µM | –
O=C1ON=C(c2ccccc2)/C1=C/c1ccc(-c2ccccc2[N+](=O)[O-])o1 | inconclusive: 25.1 µM [inhibitor, full curve, poor fit] | –
Cc1cc(C)c(S(=O)(=O)NCC23C=CC(O2)C2C(=O)N(c4ccccc4)C(=O)C23)c(C)c1 (stereo unspecified) | active: 14.1 µM | –
CCOC(=O)c1c(C)oc2c1c(C(c1ccncc1)N1CCOCC1)c(O)c1ccccc12 (stereo unspecified) | inconclusive: 56.2 µM [inhibitor, partial curve, poor fit] | –
